In PubChem BioAssay AID1259407 (Chemical Carcinogenesis Research Information System (CCRIS), 2018):
Entries after “also recorded” stand apart in the source; their conditions may differ. Some entries of the source have several records that differ or are many. This is not the full list of results. An entry can have further records. The rule behind the calls is not given here. Values given together differ, and nothing given here explains why; some may be repeats, others may stem from another dose, organism or construct than stated. Records carry a tag for their origin. A, B and so on number the origins entry by entry. Signs of the kind (2×) count equal records among those shown.

Tested on: CCRIS mutagenicity, Ames/micronucleus/aberration tests
Experiment: CCRIS mutagenicity studies
[1] = Test System: Mouse lymphoma, Strain/Indicator: L5178Y (tk+/tk-), Metabolic Activation: Rat, Liver, S-9, Aroclor 1254, Method: Suspension/plate
[2] = Test System: AMES SALMONELLA TYPHIMURIUM, Strain/Indicator: TA98, Metabolic Activation: NONE, Method: PREINCUBATION
[3] = Test System: Ames Salmonella typhimurium, Strain/Indicator: TA100, Metabolic Activation: None, Method: Preincubation
[4] = End Point: IN VITRO CHROMOSOMAL ABERRATIONS, Test System: CHL CELLS, Metabolic Activation: NONE
[5] = Test System: AMES SALMONELLA TYPHIMURIUM, Strain/Indicator: TA100, Metabolic Activation: NONE, Method: PREINCUBATION
[6] = End Point: In vitro chromosomal aberrations, Test System: Chinese hamster lung (CHL/IU) cells, Metabolic Activation: None
[7] = Test System: E. COLI, Strain/Indicator: WP2 UVRA, Metabolic Activation: HAMSTER, LIVER, S-9, AROCLOR 1254, Method: STANDARD PLATE
[8] = Test System: AMES SALMONELLA TYPHIMURIUM, Strain/Indicator: TA100, Metabolic Activation: RAT, LIVER, S-9, AROCLOR 1254, Method: STANDARD PLATE

## CCN(CC)c1ccc2c(-c3ccc(S(=O)(=O)O)cc3S(=O)(=O)[O-])c3ccc(=[N+](CC)CC)cc-3oc2c1
[1]
  mutagenic call: active; inconclusive (previous evaluation positive); also recorded: inactive; negative

## O=C(Cl)c1ccc([N+](=O)[O-])cc1
[2]
  mutagenic call: inactive; negative [study A] and active; positive [study B]
Test System: Ames Salmonella typhimurium, Strain/Indicator: TA98, Metabolic Activation: None, Method: Preincubation
  mutagenic call: active; positive (weak response) and active; positive
Test System: Ames Salmonella typhimurium, Strain/Indicator: TA98, Metabolic Activation: Rat, Liver, S9, Sodium phenobarbital and 5,6-benzoflavone (10%), Method: Preincubation
  mutagenic call: inactive; negative and active; positive
[3]
  mutagenic call: inactive; negative and active; positive

## CCC(C)Nc1ccc(NC(C)CC)cc1 (stereo unspecified)
End Point: IN VITRO CHROMOSOMAL ABERRATIONS, Test System: CHINESE HAMSTER LUNG CELLS (CHL), Metabolic Activation: NONE
  mutagenic call: inactive; negative; authors describe results at highest dose for 24 hr treatment as equivo; also recorded: inactive; negative; authors describe results at highest dose as equivocal

## Nc1ccccc1[N+](=O)[O-]
[4]
  mutagenic call: inactive; negative; authors report equivocal results for ploidy changes at 0.13 mg/ml; also recorded: active; positive (ploidy changes); also recorded: active; positive (structural and ploidy changes)

## CN1CCC=C2c3nc(N)sc3CCC21 (stereo unspecified)
Test System: AMES SALMONELLA TYPHIMURIUM, Strain/Indicator: TA1538, Metabolic Activation: RAT, LIVER, S-9, AROCLOR 1254, Method: STANDARD PLATE
  mutagenic call: active; positive [sample A, study B] and inactive; negative [sample B, study A]

## O=CCCCC=O
[4]
  mutagenic call: active; positive (structural changes); authors report equivocal results for ploidy chang; also recorded: active; positive (structural changes)
[5]
  mutagenic call: active; positive [study A] and inactive; negative [study B] and inactive; negative [study C]
Test System: E. COLI, Strain/Indicator: WP2 (PKM101), Metabolic Activation: NONE, Method: STANDARD PLATE
  mutagenic call: active; positive [study A] and inactive; negative [study B]

## CCC(Cl)C(=O)O (stereo unspecified)
[4]
  mutagenic call: active; positive (structural changes) and inactive; negative

## CCOC(=O)NNc1nncc2ccccc12
Test System: AMES SALMONELLA TYPHIMURIUM, Strain/Indicator: TA100, Metabolic Activation: NONE, Method: STANDARD PLATE
  mutagenic call: inactive; negative [study A] and active; positive [study B]

## O=C1C=CC(=O)C=C1
Test System: AMES SALMONELLA TYPHIMURIUM, Strain/Indicator: TA97, Metabolic Activation: NONE, Method: PREINCUBATION
  mutagenic call: inactive; negative and active; positive
[2]
  mutagenic call: inactive; negative [study A] and active; positive [study B] and inactive; negative [study C]
Test System: AMES SALMONELLA TYPHIMURIUM, Strain/Indicator: TA104, Metabolic Activation: NONE, Method: PREINCUBATION
  mutagenic call: inactive; negative and active; positive

## O=C(O)c1cc2ccccc2cc1O
[6]
  mutagenic call: active; positive (structural changes and ploidy). precipitation of test chemical at 1.0; also recorded: active; positive (structural changes and ploidy); also recorded: active; positive (structural changes and ploidy). weak response
Test System: AMES SALMONELLA TYPHIMURIUM, Strain/Indicator: TA1537, Metabolic Activation: NONE, Method: PREINCUBATION
  mutagenic call: inactive; negative [study A] and active; positive [study B] and inactive; negative [study C]

## CC(C)CCON=O
Test System: Mouse lymphoma, Strain/Indicator: L5178Y (tk+/tk-), Metabolic Activation: None, Method: Suspension/plate
  mutagenic call: active; equivocal (previously evaluated positive); also recorded: active; positive; also recorded: active; inconclusive (previously evaluated positive)
[1]
  mutagenic call: active; positive (2×) and inactive; negative

## C#CCO
[3]
  mutagenic call: active; positive (2×) and active; positive (weak response)

## Nc1ccc([N+](=O)[O-])cc1Cl
[4]
  mutagenic call: inactive; negative; also recorded: inactive; negative; authors report equivocal results for ploidy changes; also recorded: active; positive (structural changes); authors report equivocal results for ploidy chang

## CCN(CC)c1ccc(C(=C2C=CC(=[N+](CC)CC)C=C2)c2ccc(N(CC)CC)cc2)cc1
Test System: AMES SALMONELLA TYPHIMURIUM, Strain/Indicator: TA1535, Metabolic Activation: HAMSTER, LIVER, S-9, AROCLOR 1254 (10%), Method: STANDARD PLATE
  mutagenic call: inactive; negative and active; positive

## COc1ccc(C)cc1N
[7]
  mutagenic call: inactive; negative [0.3 to 333.3 µg/plate] and inactive; negative [10 to 6666 µg/plate] and active; positive [62.5 to 3000 µg/plate]
Test System: E. COLI, Strain/Indicator: WP2 UVRA, Metabolic Activation: MOUSE, LIVER, S-9, Method: STANDARD PLATE
  mutagenic call: inactive; negative [0.3 to 333.3 µg/plate] and inactive; negative [10 to 6666 µg/plate] and active; positive [62.5 to 3000 µg/plate]

## C=C(C)CN(CC)c1c([N+](=O)[O-])cc(C(F)(F)F)cc1[N+](=O)[O-]
End Point: In vitro chromasomal aberrations, Test System: Chinese hamster ovary (CHO) cells, Metabolic Activation: Rat, Liver, S-9
  mutagenic call: inactive; negative; also recorded: inactive; negative. a positive response at 85 ug/ml was thought to be possibly attributabl

## O=C1C=CC(=O)c2ccccc21
[6]
  mutagenic call: active; positive (structural changes and ploidy). toxic at 0.00024 mg/ml; also recorded: inactive; negative. weak structural change response is not dose related; also recorded: active; positive (structural changes). weak ploidy response is not dose related

## NCCNCCNCCNCCN
Test System: AMES SALMONELLA TYPHIMURIUM, Strain/Indicator: TA98, Metabolic Activation: HAMSTER, LIVER, S-9, AROCLOR 1254 (10%), Method: PREINCUBATION
  mutagenic call: active; positive and inactive; negative
Test System: AMES SALMONELLA TYPHIMURIUM, Strain/Indicator: TA98, Metabolic Activation: RAT, LIVER, S-9, AROCLOR 1254 (10%), Method: PREINCUBATION
  mutagenic call: active; positive and inactive; negative

## O=P(OCC(Br)CBr)(OCC(Br)CBr)OCC(Br)CBr (stereo unspecified)
[7]
  mutagenic call: inactive; negative and active; positive
Test System: E. COLI, Strain/Indicator: WP2 UVRA, Metabolic Activation: HAMSTER, LIVER, S-9, Method: STANDARD PLATE
  mutagenic call: inactive; negative and active; positive
Test System: E. COLI, Strain/Indicator: WP2 UVRA, Metabolic Activation: MOUSE, LIVER, S-9, AROCLOR 1254, Method: STANDARD PLATE
  mutagenic call: inactive; negative and active; positive
Test System: E. COLI, Strain/Indicator: WP2 UVRA, Metabolic Activation: RAT, LIVER, S-9, AROCLOR 1254, Method: STANDARD PLATE
  mutagenic call: inactive; negative and active; positive

## CC(=O)OCc1cc(C(C)=O)ccc1OC(C)=O
Test System: AMES SALMONELLA TYPHIMURIUM, Strain/Indicator: TA98(PKM101), Metabolic Activation: NONE, Method: STANDARD PLATE
  mutagenic call: inactive; negative [study A] and active; positive [study B]

## CC(=O)CC(=O)Nc1ccc(C)cc1
Test System: E. COLI, Strain/Indicator: WP2UVRA/PKM101, Metabolic Activation: RAT, LIVER, S-9, PHENOBARBITAL AND BETA-NAPHTHOFLAVONE, Method: PREINCUBATION
  mutagenic call: active; positive and inactive; negative

## Oc1cccc2c1ccc1c3ccccc3ccc21
[8]
  mutagenic call: active; positive [study A] and inactive; negative [study B]

## NNc1ccccc1
Test System: AMES SALMONELLA TYPHIMURIUM, Strain/Indicator: TA102, Metabolic Activation: NONE, Method: STANDARD PLATE
  mutagenic call: active; positive [study A] and inactive; negative [study B]

## CCCCOCCO
Test System: AMES SALMONELLA TYPHIMURIUM, Strain/Indicator: TA97A, Metabolic Activation: NONE, Method: STANDARD PLATE
  mutagenic call: inactive; negative [study A] and active; positive [study B]

## Oc1ccc2c(ccc3c4ccccc4ccc23)c1
[8]
  mutagenic call: active; positive [study A] and inactive; negative [study B]

## CC1(c2ccc(Oc3ccccc3)cc2)OC(=O)N(Nc2ccccc2)C1=O (stereo unspecified)
End Point: UDS in rat hepatocytes, Test System: Crl:CD(SB)BR male rats, Metabolic Activation: None
  mutagenic call: inactive; negative; also recorded: active; positive. (reporducible in 3 trials but no concentration-related response)

## Oc1c(Cl)c(Cl)c(Cl)c(Cl)c1Cl
End Point: IN VITRO CHROMOSOMAL ABERRATIONS, Test System: CHINESE HAMSTER OVARY CELLS, Metabolic Activation: RAT, LIVER, S-9, AROCLOR 1254
  mutagenic call: active; positive; statistically significant increase, but not dose-related; also recorded: active; positive

## CCOc1ccc(NO)cc1
[5]
  mutagenic call: active; positive [study A] and inactive; negative [study B] and active; positive [study C]

## OCC(Cl)CCl (stereo unspecified)
[2]
  mutagenic call: inactive; negative [study A] and active; positive [study B]

## COc1cc([N+](=O)[O-])ccc1N=NC(C(C)=O)C(=O)Nc1ccccc1OC (stereo unspecified)
Test System: AMES SALMONELLA TYPHIMURIUM, Strain/Indicator: TA1535, Metabolic Activation: NONE, Method: PREINCUBATION
  mutagenic call: active; positive [study A] and inactive; negative [study B]

## FC(F)Cl
Test System: AMES SALMONELLA TYPHIMURIUM, Strain/Indicator: TA100, Metabolic Activation: NONE, Method: GAS EXPOSURE
  mutagenic call: inactive; negative [study A] and active; positive [study B]

## Nc1ccc(/C=C/c2ccccc2)cc1
Test System: AMES SALMONELLA TYPHIMURIUM, Strain/Indicator: TA98, Metabolic Activation: NONE, Method: STANDARD PLATE
  mutagenic call: inactive; negative [sample A, study A] and active; positive [sample B, study B] and active; positive [sample B, study C]
